For 85 molecules, activation results are on record in PubChem BioAssay AID1645887 (National Center for Advancing Translational Sciences (NCATS), 2021).

The structures appear in SMILES notation. Where “and” joins values, the source holds several entries; their conditions need not be identical. Equal values may be shown once. Among all 16,000 compounds or so, about 40 (0.2%) were called active. Not shown: some 1% with an inconclusive outcome. Calls come from the whole dose curve; as a rule, active = well fitted activation curve with a large enough effect; inconclusive = small, poorly fitted or top-dose-only effect, or another doubt; inactive = no such curve, though single readings can be large or run the other way. The list shows a part of the results.
% is set by controls: 0 for no effect and ±100 for the full control effect.

In the test the target is Rap guanine nucleotide exchange factor 4 (Homo sapiens) (UniProt Q8WZA2). Kind of test: Validation qHTS for agonist of cAMP-regulated guanine nucleotide exchange factor 4 (EPAC2).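 Note: exchange makes BODIPY-GDP fluorescence drop when released from Rap1B; series mostly up to about 150 µM.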 To be noted: EPAC2 Rap1B BODIPY-GDP exchange, fluorescence; activation: active compounds read high. The essentials: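 Signal normalized against 6.5 mM cAMP as agonist control. Mix of EPAC2 (100 nM), RAP1B-BODIPY-GDP (250 nM) and GDP (50 uM) was read kinetically at 480/540 nm, every 5 min over 30 min, after 5 min room-temperature incubation with compound.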
Chain of UniProt Q8WZA2 (Q8WZA2 whole entry, looked up): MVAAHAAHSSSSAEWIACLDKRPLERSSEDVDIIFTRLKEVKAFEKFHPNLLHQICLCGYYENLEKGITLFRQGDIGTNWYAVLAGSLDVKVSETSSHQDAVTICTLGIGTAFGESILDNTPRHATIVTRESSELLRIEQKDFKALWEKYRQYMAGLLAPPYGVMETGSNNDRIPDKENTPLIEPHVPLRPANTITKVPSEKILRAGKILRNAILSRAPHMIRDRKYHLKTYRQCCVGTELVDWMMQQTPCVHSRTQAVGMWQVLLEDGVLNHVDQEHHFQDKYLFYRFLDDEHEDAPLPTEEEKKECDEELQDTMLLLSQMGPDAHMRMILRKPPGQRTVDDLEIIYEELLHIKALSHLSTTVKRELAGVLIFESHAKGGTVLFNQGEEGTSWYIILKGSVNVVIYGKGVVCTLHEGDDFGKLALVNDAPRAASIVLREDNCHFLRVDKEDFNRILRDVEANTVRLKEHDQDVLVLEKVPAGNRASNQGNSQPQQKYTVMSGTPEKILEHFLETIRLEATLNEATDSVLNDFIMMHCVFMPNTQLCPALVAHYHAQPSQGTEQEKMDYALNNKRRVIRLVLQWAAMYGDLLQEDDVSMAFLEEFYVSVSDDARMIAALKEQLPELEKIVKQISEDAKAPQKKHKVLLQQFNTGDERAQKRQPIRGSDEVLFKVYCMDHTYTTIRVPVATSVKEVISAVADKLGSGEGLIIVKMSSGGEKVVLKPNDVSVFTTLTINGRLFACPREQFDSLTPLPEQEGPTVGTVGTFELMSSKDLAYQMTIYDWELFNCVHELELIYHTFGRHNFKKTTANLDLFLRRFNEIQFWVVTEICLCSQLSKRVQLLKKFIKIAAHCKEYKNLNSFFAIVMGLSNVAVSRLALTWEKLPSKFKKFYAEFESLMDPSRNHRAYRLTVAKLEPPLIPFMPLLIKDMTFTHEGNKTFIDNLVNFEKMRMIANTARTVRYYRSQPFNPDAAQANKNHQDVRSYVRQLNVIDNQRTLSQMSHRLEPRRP
For orientation: qHTS replaces the single test concentration by a dilution series.
With `Cc1ccccc1-c1ccc2ncnc(NCCN3CCOCC3)c2c1`, the activation was inactive: -13%.
With `COc1c(N2CCNC(C)C2)c(F)cc2c(=O)c(C(=O)O)cn(C3CC3)c12` (stereo not given), the activation is inactive: 14.8%.
`O=C(c1ccccc1)c1ccc2n1CCC2C(=O)O` (stereo not given): the activation was inactive: -5.45% and inactive: -35.1% and inactive: -13.9%.
Consider `CCOC(=O)[C@@](C)(N)Cc1ccc(O)c(O)c1`, for which the activation was inactive: -6.8%.
With `OC1C=C2CCN3Cc4cc5c(cc4C(C1O)C23)OCO5` (stereo not given), the activation is inactive: 6.27%.
Take `Cc1ccc2nc(N)[nH]c(=O)c2c1Sc1ccncc1`: the activation was inactive: -20.6%.
Consider `CC(C)(C)c1ccc2c(S(=O)(=O)O)c(C(C)(C)C)ccc2c1`, for which the activation is inactive: -15.4% and inactive: -27.3%.
In the case of `CCCCCCCCCC[n+]1cccc2cc(Br)ccc21` it was inactive: -29.6%.
As to `OCC1(CO)COC(C(Cl)(Cl)Cl)OC1`, the activation was inactive: -3.61%.
In the case of `CC1(C)CC2C1CCC1(C)OC2(C)CCC1O` (stereo not given), the activation was inactive: -8.15%.
For the molecule `CCNc1ncc2nc(-c3cc(F)cc(F)c3)c(=O)n(C3CC3)c2n1`, the activation is inactive: -15.1%.
As for `CC(NNC(=O)c1ccccc1)c1ccccc1` (stereo not given), the activation was inactive: -14.1%.
On to `CCCCCN=C(N)N/N=C/c1c[nH]c2ccc(OC)cc12`, for which the activation was inactive: -17.3% and inactive: -13.8%.
In the case of `COc1ccc(S(=O)(=O)N(CCO)c2ccccc2CN(C)C/C=C/c2ccc(Cl)cc2)cc1` it was inactive: 19%; in that of `O=C(Nc1ccccc1)N1CCC2(CC1)CCN(C(=O)c1csnn1)CC2`, inactive: 4.16%.
In the case of `NS(=O)(=O)c1cccc2c1c([N+](=O)[O-])cc1[nH]c(=O)c(=O)[nH]c12`, the activation was inactive: -17.5%.
Take `CCC1(C2CCN(C(=O)c3cc(F)ccc3F)CC2)NC(=O)N(CCc2scnc2C)C1=O` (stereo not given): the activation is inactive: -3.84%.
For `CN1CCN(c2ncc3nc(-c4cc(F)cc(F)c4)c(=O)n(CCC#N)c3n2)CC1`, the activation was inactive: -18.5%.
In the case of `C[C@@H](CC(=O)O)[C@@H](N)C(=O)O`, the activation was inactive: -20.1% and inactive: 3.78%.
For the molecule `COCCNc1cc(-c2c(C)noc2C)ncn1`, the activation is inactive: -16.6%.
Regarding `COCC(=O)N1CCC2(CC1)CCN(c1ccncc1)CC2`, the activation is inactive: -2.46%.
With `OCC1OC(n2cnc3c(NCc4ccco4)ncnc32)C(O)C1O` (stereo not given), the activation was inactive: -15.4%.
The value for `Cc1noc(C)c1-c1ccc2ncnc(N3CCN(C)CC3)c2c1` was inactive: -13.2%; that for `CN(C)c1ccc(-c2cncnc2Nc2ccccc2)cc1` was inactive: -10.1%; that for `CN(Cc1ccco1)c1ncnc2ccc(-c3ccoc3)cc12` was inactive: -13.2%.
In the case of `NC(Cc1cnc[nH]1)C(=O)Nc1ccc2ccccc2c1` (stereo not given) it was inactive: -7.31%; in that of `CN(CC[C@@H](Oc1ccc(-c2ccccc2)cc1)c1ccc(F)cc1)CC(=O)O`, inactive: -10.8%.
In the case of `CCCCCCCCCC(=O)O` it was inactive: -6.56%.
As to `COc1ccc2c(c1)OC(C)CN(CCNC(=O)c1ccc(-n3cccn3)cc1)C2` (stereo not given), the activation was inactive: -25.5%.
The value for `Cc1cccc(-c2cccc(C(=O)N3CCc4c(cnc(C)c4CNC(=O)c4cncs4)C3)c2)c1` was inactive: -26.6%; that for `COc1ccc2[nH]cc(CCNc3ncncc3-c3cccnc3)c2c1` was inactive: -2.51%.
With `N#Cc1ccc(CN2CCC3(CC2)CCN(C(=O)c2csnn2)CC3)cc1`, the activation is inactive: -13.8%.
Regarding `COC1=C(OC)C(=O)C(C/C=C(\C)CC/C=C(\C)CC/C=C(\C)CC/C=C(/C)CC/C=C(\C)CC/C=C(\C)CC/C=C(\C)CC/C=C(\C)CC/C=C(\C)CCC=C(C)C)=C(C)C1=O`, the activation is inactive: -7.79%.
For the molecule `COc1cc(-c2noc(C)c2C#Cc2nccn2C)cc(OC)c1OC`, the activation was inactive: -8.78%.
For `COc1ccc(C2CC(=O)c3c(O)cc(OC4OC(COC5OC(C)C(O)C(O)C5O)C(O)C(O)C4O)cc3O2)cc1O` (stereo not given), the activation is inactive: 3.56%.
`O=C(O)CO.[NH2-].[NH2-].[Pt+2]`: the activation is inactive: 7.19%.
As for `Cn1cc(-c2nc3cnc(N4CCNCC4)nc3n(CCC#N)c2=O)c2ccccc21`, the activation was inactive: 7.73%.
Regarding `COc1cccc(C(=O)NCCN2CCN(c3ccc(Cl)cc3)CC2)c1`, the activation was inactive: -38.6%.
As to `CCCOc1ccccc1-c1nc2n[nH]nc2c(=O)[nH]1`, the activation was inactive: 4.82% [middle of 4 runs].
`CN(C)c1ccc(-c2cncnc2NCCN2CCOCC2)cc1`: the activation was inactive: -33.8%.
Regarding `COc1ccccc1N1CCN(C[C@@H]2CN3C(=O)N(C)c4ccccc4C3=N2)CC1`, the activation is inactive: -22.3%.
With `Cc1cc2c(cc1C)N[C@]1(C[C@H]3CCCC(=O)N4CC[C@@H](C1)[C@@H]34)C(=NC1CCCCC1)N2`, the activation is inactive: -24.6%.
The value for `Cn1cccc1C(=O)N1CCC[C@@]2(CCN(Cc3cc(C(F)(F)F)cc(C(F)(F)F)c3)C2)C1` was inactive: -39.6%; that for `O=Cc1cc2ccccc2cc1O` was inactive: -22.5%; that for `CCCCC(C=O)NC(=O)C(CC(C)C)NC(=O)OCc1ccccc1` (stereo not given) was inactive: -21.3%.
The value for `N#CCCn1c(=O)c(-c2ccc(Cl)cc2)nc2cnc(Oc3ccccc3)nc21` was inactive: -3.65%; that for `O=C(c1cnn(-c2nccc(-c3ccco3)n2)c1C1CC1)N1CCCCC1c1cccnc1` (stereo not given) was inactive: -4.51%.
`COc1ccc(Cl)cc1-c1cc2c(c(OC)c1)OCCN(Cc1cccn1-c1nccs1)C2`: the activation is inactive: -5.56%.
`CC(=O)Oc1cccc(C)c1`: the activation is inactive: 3.83%.
Consider `c1cncc(-c2ccc3ncnc(N4CCNCC4)c3c2)c1`, for which the activation was inactive: 2.16%.
In the case of `CC[N+](C)(C)c1ccc(/C=C/c2ccncc2)cc1` it was inactive: -14.9%; in that of `COc1ccc(C2(C(=O)NCC3Cc4cccc(-c5cccnc5)c4O3)CCCC2)cc1` (stereo not given), inactive: 0.108%; in that of `FC(F)(F)COCC(F)(F)F`, inactive: -12.9%.
In the case of `COc1cccc2c1C(=O)CC(c1ccccc1)O2` (stereo not given), the activation is inactive: 2.55%.
Turning to `O=C(CN1Cc2ccccc2OC(c2ccsc2)C1)N1CCN(Cc2ccc3c(c2)OCO3)CC1` (stereo not given), the activation was inactive: -22.2%.
`COc1ncc2nc(C)c(=O)n(CCc3ccccc3)c2n1`: the activation was inactive: -5.49%.
In the case of `CSc1ccc2c(c1)[C@H](N1CCN(C)CC1)Cc1ccccc1S2` it was inactive: 1.27%.
`CCC1CN(CCNC(=O)c2ccc(C#CC(C)(C)O)cc2)Cc2cc(OC)ccc2O1` (stereo not given): the activation is inactive: -3.13%.
As to `O=S1(=O)CCOC[C@H](CC2CCCCC2)N1Cc1cccc(Cl)c1`, the activation is inactive: -31.3%.
The value for `Cc1nc2cnc(N3CCOCC3)nc2n(C)c1=O` was inactive: -7.15%; that for `COc1ccc(CNc2ncncc2-c2cccc(NS(C)(=O)=O)c2)c(OC)c1` was inactive: -14.8%; that for `CN1Cc2c(N)cccc2C(c2ccccc2)C1` (stereo not given) was inactive: 17.8%.
For the molecule `NC(=O)NNc1ccccc1`, the activation is inactive: 3.92% and inactive: -18.8%.
In the case of `Cc1cc2c(cc1C)N[C@]1(C[C@H]3CCC(=O)N4CC[C@@H](C1)[C@@H]34)C(=Nc1ccccc1C)N2` it was inactive: -25.8%.
For the molecule `CCO[C@H]1[C@H](NC(=O)c2cccnc2)c2ccccc2C12CCN(C(=O)c1ccoc1)CC2`, the activation was inactive: -6.13%.
In the case of `Cc1cccc2c(C(O)c3c[nH]c4c(C)cccc34)c[nH]c12`, the activation was inactive: -35.2%.
The value for `COc1cc(OC)c2c(c1Cl)OC1(C2=O)C(O)=CC(=O)CC1C` (stereo not given) was inactive: 7.82%; that for `CC(C)(O)c1ccccc1CC[C@@H](SCC1(CC(=O)O)CC1)c1cccc(/C=C/c2ccc3ccc(Cl)cc3n2)c1` was inactive: -24.9%; that for `CCCCCCCCCCCC(=O)O[C@H](CC(=O)O)C[N+](C)(C)C` was inactive: -34.6%.
In the case of `COc1ccc(-c2cc(C(=O)N3CCc4c(cnc(C)c4CNC(=O)c4ccsc4)C3)[nH]n2)cc1`, the activation is inactive: -25.8%.
In the case of `Cc1nc2cc(NC(=O)[C@@H]3C[C@@H](Sc4ccccn4)CN3Cc3ccccc3)ccc2s1`, the activation is inactive: 5.99%.
For the molecule `CC1(C)CC[C@]2(C(=O)O)CC[C@]3(C)C(=CCC4[C@@]5(C)CC[C@H](O)C(C)(C)C5[C@H](O)C[C@]43C)C2C1` (stereo not given in full), the activation was inactive: -43.5%.
On to `C=CS(=O)(=O)N(Cc1ccccc1Br)[C@H](CO)CC(C)C`, for which the activation was inactive: -34.8%.
Regarding `COc1ccc2c(=O)c3ccccc3oc2c1`, the activation is inactive: -27%.
Regarding `C[C@@H]1OC(OC2CC[C@@]3(C)C(CC[C@@]4(C)C3CC=C3C5CC(C)(C)CC[C@]5(C(=O)OC5OCC(O)[C@@H](O)[C@@H]5OC5O[C@@H](C)[C@H](O[C@H]6OC(CO)C(O)C(O)C6O)C(O)C5O)C(O)C[C@@]34C)C2(C)C)C(O)C(O)[C@H]1OC1OCC(O)C(O)[C@H]1O` (stereo not given in full), the activation is inactive: -21.2%.
In the case of `CN1CCN(c2ncc3nc(-c4ccc(F)cc4)c(=O)n(C4CC4)c3n2)CC1` it was inactive: -10.2%; in that of `Nc1nc2ncc(CNc3ccc(C(=O)NC(CCC(=O)O)C(=O)O)cc3)nc2c(=O)[nH]1` (stereo not given), inactive: -1.78%.
With `O=C(NCC1CCC2(CCN(Cc3cccc(-c4ccco4)c3)CC2)O1)c1ccccc1` (stereo not given), the activation is inactive: -3.43%.
Take `CC(C)=CCc1c(O)cc(O)c2c1O[C@H](c1ccccc1)CC2=O`: the activation is inactive: -5.38%.
Take `CC(=O)OCC1OC(Oc2cc(OC(C)=O)c3c(=O)cc(-c4ccc(OC(C)=O)cc4)oc3c2)[C@@H](OC(C)=O)C(OC(C)=O)C1OC(C)=O` (stereo not given in full): the activation was inactive: -49.6%.
Turning to `CNc1ccccc1C(=O)N1CCc2c([nH]c3ccccc23)C1=O`, the activation was inactive: -21.8%.
The value for `CC1=C(C(=O)O)N2C(=O)[C@@H](NC(=O)C(N)c3ccccc3)[C@H]2SC1` (stereo not given in full) was inactive: -7.93%; that for `COc1ccc2c(=O)c(CC(=O)O)coc2c1` was inactive: 0.765%; that for `N#CCCn1c(=O)c(-c2ccc(F)cc2)nc2cnc(Oc3ccccc3)nc21` was inactive: -13.1%.
With `CN1CCN(c2ncc3nc(CCc4ccccc4)c(=O)n(C4CC4)c3n2)CC1`, the activation was inactive: 10.5%.
